According to PubChem BioAssay AID894 (National Center for Advancing Translational Sciences (NCATS), 2007):
Values joined by “and” are separate entries in the source; they are usually repeats but may differ in a detail not shown here. Equal entries are not always repeated. Out of some 150,000 compounds screened, about 6,500 (4.3%) were called active. The inconclusive results got no clear call from the source; some entries with a clear call stand among them for comparison. Calls come from the whole dose curve; as a rule, active = well fitted inhibition curve with a large enough effect (not every such curve was filed as active); inconclusive = small, poorly fitted or top-dose-only effect, or another doubt; inactive = no such curve, though single readings can be large or run the other way. Where the call is inconclusive, the potency comes from a doubtful curve fit.

biological target: 15-hydroxyprostaglandin dehydrogenase [NAD(+)] (Homo sapiens) (UniProt P15428); test: qHTS Assay for Inhibitors of HPGD (15-Hydroxyprostaglandin Dehydrogenase); settings: purified HPGD, NADH fluorescence kinetic, PGE2 substrate; activity change, negative = inhibition: stronger effect = lower value
Sequence of UniProt P15428 (P15428 whole entry, looked up): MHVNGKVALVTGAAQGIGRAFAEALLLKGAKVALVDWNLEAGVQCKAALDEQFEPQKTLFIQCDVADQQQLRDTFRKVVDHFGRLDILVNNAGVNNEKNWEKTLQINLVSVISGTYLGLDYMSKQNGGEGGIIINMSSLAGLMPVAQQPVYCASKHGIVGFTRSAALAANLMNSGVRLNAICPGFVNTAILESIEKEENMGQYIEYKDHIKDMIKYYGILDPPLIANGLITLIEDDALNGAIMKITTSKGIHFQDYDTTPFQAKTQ
Method in brief: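 NADH formation kinetics: reaction with 30 uM PGE2 and 1 mM NAD+ (final), 20 nM enzyme, Tris-HCl pH 8 with Tween 20, after 15 min compound preincubation at room temperature. Fluorescence change, last versus first of five reads.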
% is set by controls: 0 for no effect and ±100 for the full control effect; potency is the fitted concentration of half-maximal effect; tags give direction and shape of the fitted curve.

| SMILES | Potency | activity change, negative = inhibition |
| --- | --- | --- |
| Cc1ccc(-c2cc(-c3ccc(C)cc3)[n+](C)o2)cc1 | inconclusive: 25.1 µM [inhibitor, partial curve] | – |
| Cc1cc(Cl)ccc1N=Cc1c(O)n(C)c(=O)n(C)c1=O | inconclusive: 35.5 µM [inhibitor, partial curve] | – |
| CSc1ncc(/C=C2/C(=O)NC(=O)N(c3ccc(C(C)C)cc3)C2=O)cn1 | inconclusive: 28.2 µM [inhibitor, partial curve] | – |
| CC[C@@H](CO)NC(=O)[C@H]1C=C2c3cccc4c3c(cn4C)C[C@H]2N(C)C1 | inconclusive: 31.6 µM [inhibitor, partial curve] | – |
| CCC(C)N1C(=O)/C(=C/c2ccc3c(c2)CCN3CCCCl)C(=O)NC1=S (stereo not given) | active: 25.1 µM | – |
| O=C(Cc1ccccc1)N1CCN(CC2CC=CCC2)CC1 (stereo not given) | – | inactive: -7.77% |
| CC1CN=C(Nc2ccccc2)S1 (stereo not given) | active: 8.91 µM | – |
| CC1(C)Cc2c(sc3c2C(=O)NC(c2cccnc2)N3)CO1 (stereo not given) | inconclusive: 39.8 µM [inhibitor, single point] | – |
| CN(C)c1ccc(P(=S)(N(C)C)N(C)C)cc1 | – | inactive: -20.8% |
| Brc1cccc(-c2ccccc2)c1 | – | inactive: -2.09% |
| O=C(c1ccc2c(c1)OCO2)N1CCC2(CC1)OCCO2 | active: 25.1 µM | – |
| O=C1C(Cl)=C(N2CCCCCC2)C(=O)N1c1ccccc1 | active: 15.8 µM | – |
| CCCNC(=O)c1c(N)n(Cc2ccc3c(c2)OCO3)c2nc3ccccc3nc12 | inconclusive: 20 µM [inhibitor, partial curve] | – |
| Cc1c(C=C2C(=O)N(C)C(=O)N(C)C2=O)c(=O)n(-c2ccccc2)n1C | – | inactive: 5.3% |
| COCCCn1c(N)c(C(=O)OC(C)COC)c2nc3ccccc3nc21 (stereo not given) | inconclusive: 15.8 µM [inhibitor, partial curve] | – |
| CN1C(=O)C(=Cc2ccccc2Oc2ccc(Cl)cc2)C(=O)N(C)C1=O | active: 25.1 µM | – |
| COc1ccc(Cn2c(O)c(/C=N/NC(=O)c3ccccc3O)c(=O)[nH]c2=O)cc1 | inconclusive: 28.2 µM [inhibitor, partial curve] | – |
| CC(C)N(CC(O)c1cccc([N+](=O)[O-])c1)C(C)C (stereo not given) | inconclusive: 39.8 µM [inhibitor, partial curve, poor fit] | – |
| Cc1oc(-c2cccs2)nc1CSCC(=O)N1CCC2(CC1)OCCO2 | inconclusive: 20 µM [inhibitor, partial curve] | – |
| COc1ccc(/C=C/C(=O)N2CC3C[C@@H](C2)Cn2c3cccc2=O)cc1OC | inconclusive: 39.8 µM [inhibitor, single point] | – |
| CC/C(=N\N1CCCCCC1)c1c(O)n(-c2ccccc2C)c(=O)[nH]c1=O | – | inactive: -8.2% |
| C[C@@H](N)Cn1ccc2cc(F)c(Cl)cc21 | – | inactive: 5.95% |
| COc1ccc2c3c([nH]c2c1)C(C)=NCC3 | inconclusive: 14.1 µM [inhibitor, partial curve] and inconclusive: 31.6 µM [inhibitor, partial curve] and inconclusive: 35.5 µM [inhibitor, partial curve] | – |

| SMILES | Potency | activity change, negative = inhibition |
| --- | --- | --- |
| CC(=Nc1c(C)n(C)n(-c2ccccc2)c1=O)c1c(O)n(Cc2ccccc2)c(=O)[nH]c1=O | active: 20 µM | – |
| Cc1ccc2cc3cc(C(=O)N4CCC5(CC4)OCCO5)oc3nc2c1 | inconclusive: 28.2 µM [inhibitor, partial curve] | – |
| Cn1c2ccccc2c2c(C(=O)N3CCC4(CC3)OCCO4)cn(C3CCCC3)c(=O)c21 | inconclusive: 31.6 µM [inhibitor, partial curve] | – |
| CCCCCCCCc1[se]c2ccccc2c1[Se]c1ccccc1 | – | inactive: -16% |
| CN1C(=O)C(Cc2c[nH]c3ccccc23)C(=O)N(C)C1=O | inconclusive: 25.1 µM [inhibitor, partial curve, poor fit] | – |
| CN1CCN(C(=O)COc2ccc(-c3nc4ccccc4s3)cc2)CC1 | inconclusive: 35.5 µM [inhibitor, partial curve] | – |
| Cc1c(N=Nc2c(O)n(Cc3ccccc3)c(=O)[nH]c2=O)c(=O)n(-c2ccccc2)n1C | inconclusive: 31.6 µM [inhibitor, single point] | – |
| Oc1ccccc1O | active: 11.2 µM and active: 17.8 µM | – |
| O=c1[nH]c(=O)n(CCC2=CCCCC2)c(O)c1C=NC1CCN(Cc2ccccc2)CC1 | – | inactive: -7.82% |
| O=C(Nc1ccc(-c2nc3ccccc3c(=O)o2)cc1)c1ccco1 | inconclusive: 20 µM [inhibitor, partial curve] | – |
| CCNCC1(c2ccc(OC)c(OC)c2)CCCC1 | – | inactive: -6.3% |
| CCCC[C@H]1C(=O)O[C@H](C)[C@H](NC(=O)c2cccc(NC=O)c2OC)C(=O)O[C@@H](C)[C@@H]1OC(=O)CC(C)C | – | inactive: -9.91% |
| O=C1CN=C(c2ccccc2)c2ccccc2N1Cc1ccc(C(F)(F)F)cc1 | – | inactive: -14% |
| CC(=O)Nc1c2sscc-2n(C)c1=O | – | inactive: -10.7% |
| CC(=O)O[C@H]1CC[C@@]2(C)[C@@H](CC[C@H]3[C@H]2CC(=O)[C@]2(C)[C@@H]3C[C@@H](N3CC3)[C@H]2C(C)=O)C1 | – | inactive: -8.48% |
| C=C(C)C1CNC(C(=O)O)C1CC(=O)O (stereo not given) | – | inactive: 4.07% |
| O=C(c1ccc(CS(=O)(=O)c2ccc(Br)cc2)o1)N1CCC2(CC1)OCCO2 | – | inactive: -4.9% |
| O=C1NC(=O)N(c2ccccc2)C(=O)/C1=C\c1ccc2c3c(cccc13)CC2 | inconclusive: 17.8 µM [inhibitor, partial curve] | – |
| Cc1ccccc1-c1ccc(C(=O)O)s1 | inconclusive: 35.5 µM [inhibitor, partial curve] | – |
| C[C@@]12CC(c3ccoc3)OC(=O)C1CC[C@@]1(C)C2C2C=C[C@@]1(O)C(=O)O2 (stereo not given in full) | – | inactive: -1% |
| COc1ccc(Cn2c(N)c(C(=O)NCc3ccco3)c3nc4ccccc4nc32)cc1OC | inconclusive: 10 µM [inhibitor, partial curve] | – |
| CCC(=NCCO)c1c(O)n(C2CCCCC2)c(=O)[nH]c1=O | – | inactive: -2.68% |
